# Whole data set: some 33,000 sequences, median “E-score (-0.5 to 0.5)” near -0.021, cut for the highest 2% near 0.32. The list shows a part of the results.
# Biological target: T1, Zap1 (UniProt P47043)
# T1 sequence: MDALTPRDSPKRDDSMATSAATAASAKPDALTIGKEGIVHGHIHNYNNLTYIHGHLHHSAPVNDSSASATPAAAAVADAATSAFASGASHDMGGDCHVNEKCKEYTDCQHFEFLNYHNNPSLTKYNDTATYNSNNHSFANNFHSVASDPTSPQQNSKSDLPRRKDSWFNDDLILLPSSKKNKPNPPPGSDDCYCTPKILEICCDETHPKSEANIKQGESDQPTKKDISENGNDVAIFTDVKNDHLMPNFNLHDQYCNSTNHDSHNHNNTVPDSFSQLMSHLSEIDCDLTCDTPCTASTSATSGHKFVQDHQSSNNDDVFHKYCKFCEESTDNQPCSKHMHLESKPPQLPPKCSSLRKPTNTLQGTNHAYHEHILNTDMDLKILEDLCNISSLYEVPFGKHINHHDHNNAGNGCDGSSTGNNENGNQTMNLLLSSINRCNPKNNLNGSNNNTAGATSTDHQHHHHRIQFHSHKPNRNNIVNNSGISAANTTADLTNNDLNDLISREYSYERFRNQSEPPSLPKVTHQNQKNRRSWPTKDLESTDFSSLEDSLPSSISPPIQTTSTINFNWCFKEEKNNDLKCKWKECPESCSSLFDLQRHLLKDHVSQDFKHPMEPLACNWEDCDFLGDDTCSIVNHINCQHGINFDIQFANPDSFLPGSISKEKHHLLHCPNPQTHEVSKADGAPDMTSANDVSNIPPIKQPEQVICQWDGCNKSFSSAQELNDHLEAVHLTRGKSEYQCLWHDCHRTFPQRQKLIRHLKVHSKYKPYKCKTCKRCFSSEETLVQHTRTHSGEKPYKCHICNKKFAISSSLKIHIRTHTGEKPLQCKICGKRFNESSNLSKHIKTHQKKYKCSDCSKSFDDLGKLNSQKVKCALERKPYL
# Assay: PBM E-score (8-mer binding enrichment) (E-score (-0.5 to 0.5)); higher = stronger / more preferred TF binding; most listed sequences are background and not binding sites
# Settings: protein concentration: 200 nM; construct: GST-full length
# Summary of the method: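 Yeast transcription factors carrying a GST tag, as full-length proteins or DNA-binding domains, were produced by PURExpress in vitro transcription/translation. About 100-200 nM protein was applied to universal all-10-mer Agilent arrays, double-stranded by primer extension on fresh or once-stripped slides. Bound protein was detected with fluorescent anti-GST, and scans were normalised with masliner. The Universal PBM Analysis Suite gave each ungapped eight-base word, pooled with its reverse complement, an E-score, a modified Wilcoxon-Mann-Whitney statistic.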
row,Sequence,PBM E-score
1,GTATGAAA,0.151
2,AGGCGTTC,-0.144
3,GGGGGTAA,-0.0883
4,AAGTTAGT,-0.0228
5,AAGTAACG,0.052
6,GGGGGGGA,-0.422
7,ACAGGGTA,0.366
8,TCACATGA,-0.0588
9,GAATACGA,0.027
10,GGGGACAA,0.196
11,AACTACTG,-0.00324
12,CACGAGTA,-0.122
13,ATAGACAA,0.0955
14,AGTTGCGC,-0.215
15,ATGGATAG,-0.158
16,CCCCTGCC,-0.14
17,AACAGGGT,0.348
18,CGATGCCC,-0.294
19,AATTGGAA,0.0687
20,CGGTGCGA,-0.0965
21,ATTGGAGA,-0.0327
22,ACAACTCA,0.0673
23,CCAGACGG,-0.0508
24,AGGCTATC,0.00193
25,AATTCGAT,0.103

row,Sequence,PBM E-score
1,ACGTGGGA,-0.153
2,GTACTCAA,0.0145
3,AATCACCG,-0.0435
4,CCGCTATA,-0.172
5,TGCCGAAA,-0.00691
6,AATAGGAA,0.0505
7,GTAGCCAA,-0.0673
8,CGCTGGCC,-0.161
9,CCAGAGAG,-0.123
10,CGACAGTC,-0.354
11,AGTATAAG,0.0626
12,CGAGAGTA,0.0923
13,AGCAGCTG,-0.112
14,AAACCGTT,0.00477
15,GTAGGCGA,-0.231
16,CAGTGTGC,-0.324
17,ATAAGATA,0.157
18,AGGATGGC,-0.149
19,CAGAGTGA,-0.234
20,ACACTCCG,-0.159
21,AACTCGAT,0.103
22,CTCATTGA,-0.0437
23,AAGACCAC,0.0451
24,CTACGGTC,-0.162
25,AAATCATT,0.0365

row,Sequence,PBM E-score
1,CTCCATTC,-0.134
2,CACAGTAC,0.148
3,CCCTTTTC,0.0941
4,CTCGGGGC,-0.0665
5,AGAATCCC,0.0252
6,CACAACAC,0.152
7,CAGTCCGG,-0.108
8,ATTGCTCC,-0.156
9,GTATAGCA,-0.104
10,CCTTCCAA,-0.0682
11,TACACCTA,0.11
12,CATAGGCG,-0.15
13,GGGCAAAA,0.173
14,GCTAGAGC,-0.197
15,GAACGCTA,-0.334
16,GCAGGGAC,-0.0759
17,ACGGGCAT,-0.0999
18,CCGGTGCC,-0.212
19,AGGCTGTG,-0.114
20,ACCTAGCC,-0.193
21,AACCCGGA,0.332
22,ATGCCATC,-0.0807
23,ACGCGGTA,0.136
24,GTTCAGTA,0.239
25,GCATATAC,-0.0818

row,Sequence,PBM E-score
1,CGTTATCC,-0.0732
2,AACAGACC,0.12
3,CAACTCTG,-0.119
4,CTCGGATC,-0.015
5,CCTGACCG,0.0354
6,AAAGATTT,-0.0088
7,CATTCGCC,-0.133
8,TCTTATAA,0.162
9,AAAAGGGT,0.386
10,TCGGATAA,0.178
11,AGTCCCCA,0.0159
12,ATCGCCGA,-0.121
13,CAGCGCTC,-0.246
14,TCACTCCA,-0.111
15,ATTAAAGC,0.0816
16,CGCGTAAC,0.0699
17,CGGTCAGA,0.11
18,CTTCGCGA,0.0205
19,TCAGGTAA,0.0394
20,AAATGGAC,0.15
21,AGCAGTTC,-0.00971
22,CGTTATAA,0.247
23,TACGGGGA,-0.0365
24,ATCAGCCA,-0.259
25,AGGCCATC,-0.0217

row,Sequence,PBM E-score
1,AGACTGTG,-0.243
2,CAAAAAGG,0.197
3,AGTTGTTC,0.14
4,ATATCCGC,-0.00426
5,CTAATGTC,-0.098
6,GTACGGAA,0.153
7,ATATCGGA,0.0419
8,CAGCCTGG,-0.0772
9,TACCCGTA,0.273
10,CTCCTACC,-0.0885
11,AAAGTCTT,-0.185
12,TTGAAAAA,0.17
13,AGAGAAGA,-0.00894
14,CCCCCAGA,-0.324
15,ACTCTACT,-0.0105
16,ACGACGAA,-0.0692
17,CACCCAAC,-0.0206
18,ATTGCGTC,0.0358
19,AACTTATG,0.0243
20,CGTAATTC,-0.0754
21,ATAAGCTA,0.124
22,CGCCAGTC,-0.214
23,ACTTGCAG,-0.223
24,CTTAACCC,0.387
25,AGCCGGCC,-0.0497

row,Sequence,PBM E-score
1,ACCTACTC,-0.00283
2,CACGGTCA,0.262
3,AAGTCAGA,-0.0953
4,AAGCTTGA,-0.0977
5,GCCCAAAC,0.0979
6,AGTATGTC,-0.093
7,GAAATATC,0.0294
8,AGGTAACT,0.237
9,CCTCAAGA,-0.00944
10,ACCAACAA,0.316
11,CCCTTTCC,-0.0587
12,AAAGAGAA,-0.168
13,TCAACGAA,0.0314
14,AGCGAAAA,-0.0505
15,ATGGCCAG,0.268
16,GTATGCCA,-0.0791
17,AACGCGGT,0.159
18,CAATCTTA,-0.094
19,CTTGTTTA,0.126
20,ACTTTCCC,-0.117
21,ACCAGCGG,0.0819
22,ACCTTGCA,0.219
23,CCGTGATC,0.0852
24,CCCAAAAA,0.247
25,TAATCGTA,0.079

row,Sequence,PBM E-score
1,TCCTGAGA,-0.14
2,AGAGGATC,-0.158
3,AAGTAATA,0.0823
4,AGTTCAAT,-0.149
5,CCAAGAAC,-0.0543
6,CCGCCTAC,0.0299
7,ACCTAATG,0.0059
8,GCACACAC,-0.1
9,GTCCACAA,0.063
10,TTAGCTAA,-0.107
11,ACTACAAA,0.135
12,ATTGCGTG,-0.0118
13,ACGATCCG,-0.0805
14,CGGTCCGC,-0.0387
15,ACCACAAG,0.259
16,ATGTCGAG,-0.112
17,GGTCGAGA,0.0285
18,GCAAGCTA,-0.0697
19,ATTAGATC,-0.0395
20,CACCTACA,0.0158
21,AACTGACT,-0.135
22,GCGTACAC,-0.046

# — the supplement of paper PMC3334620
